Measured values: PubChem BioAssay AID1240 (Sanford-Burnham Center for Chemical Genomics, 2008)
The campaign covered roughly 50,000 compounds. About 800 (1.6%) showed an effect of 50% or more. This is one part of the list.

Molecular target: Bcl-2-like protein 10 (Homo sapiens) (UniProt Q9HD36)
Experiment: Phenotype converters, Bcl-B/TR3 peptide binding displacement, primary biochemical FP (AID 1240);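 also: 0% = Bcl-B with tracer peptide and DMSO and 100% = tracer peptide lacking Bcl-B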
Details: GST-Bcl-B / FITC-TR3 peptide fluorescence polarization; stronger effect = higher value; compound at 3.75 mg/L

UniProt Q9HD36, sequence (Q9HD36 whole entry, looked up): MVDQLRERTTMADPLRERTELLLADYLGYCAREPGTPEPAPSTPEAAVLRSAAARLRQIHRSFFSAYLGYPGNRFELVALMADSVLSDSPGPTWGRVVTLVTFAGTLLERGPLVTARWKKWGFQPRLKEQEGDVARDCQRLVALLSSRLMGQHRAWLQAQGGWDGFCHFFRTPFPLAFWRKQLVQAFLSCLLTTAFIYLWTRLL

SMILES | displacement
COc1cc(C(=O)Nc2nc3ccc4ccccc4c3s2)cc(OC)c1OC | 6.6%
COc1cccc(C2CC(c3cccs3)=NN2c2ccc(F)cc2)c1OC (centres undefined) | 1%
COc1ccc(C(=O)/C=C\Nc2ccc3c(c2)OCO3)cc1OC | 13.6%
Cc1ccccc1NC(=O)CCC(=O)N/N=C/c1cccnc1 | 4.2%
O=C1CS/C(=N/N=C/c2cc3c(cc2[N+](=O)[O-])OCO3)N1 | 4.2%
CCOC(=O)CSc1nnc(-c2cccc(OC)c2)n1-c1ccccc1 | 2.4%
CSc1nc(-c2ccccc2)nc(N2CCOCC2)c1C(C)=O | 6.9%
CC(C)CC(=O)N1CCN(Cc2ccccn2)CC1 | -12%
COc1ccc(-c2n[nH]c(=S)n2-c2ccccc2)cc1 | 3.2%
CC1(C)CC(=O)C2=C(C1)Nc1ccccc1NC2c1cccc(Br)c1 (centres undefined) | 2.4%
CCOC(=O)CCN1C(=O)/C(=C\c2cc(OC)c(OC)c(OC)c2)SC1=S | 10.6%
CC(C)C(=O)Nc1cc(I)ccc1C(=O)O | -4.6%
CCOc1ccc(/C=N/NC(=O)c2cc(C3CC3)[nH]n2)cc1 | -8.1%
O=C(O)c1ccccc1-c1ccc(/C=C2\SC(=Nc3ccccc3)N(c3ccccc3)C2=O)o1 | 0%
CCCOc1ccc(C(=O)NCCCCCC(=O)O)cc1 | 4.9%
Cc1ccc(-c2ccc(OCC(=O)Nc3cc(Cl)ccc3C)cc2)cc1 | -6.2%
O=S(=O)(c1ccccc1)N1C2C=CC(C2)C1(C(F)(F)F)C(F)(F)Cl (centres undefined) | -0.6%
C(=NNc1cc(N2CCCCC2)nc(N2CCCCC2)n1)c1ccco1 | -0.5%
CC(=O)Oc1c(C(C)C)cc(N(C(C)=O)c2ccccc2)cc1C(C)C | 7.8%
O=C(Nc1nc2ccccc2s1)c1ccc(S(=O)(=O)N2CCCCC2)cc1 | -3.3%
O=C(CSc1ccccc1)Nc1cccc([N+](=O)[O-])c1 | 13.1%
CC1=C(C(=O)OCC2CCCO2)C(c2cccc(C(F)(F)F)c2)C2=C(CCCC2=O)N1 (centres undefined) | 6.7%
Cc1c(NC(=O)c2ccc(-c3cccc(Cl)c3)o2)cccc1-c1nc2ncccc2o1 | 8.4%

SMILES | displacement
O=C(CSc1cccc2cccnc12)c1ccc(-c2ccccc2)cc1 | 21.5%
CCOC(=O)c1c(C)nc2n(/N=C/c3ccccc3[N+](=O)[O-])c3ccccc3n12 | 11.2%
CC(C)COc1ccc(C(=O)NCc2cccnc2)cc1 | -10.9%
CCN(CC)c1ccc(/C=N/NC(=O)c2cc(C34CC5CC(CC(C5)C3)C4)[nH]n2)cc1 | -7.4%
CCN(CC)C(=O)C(=O)N/N=C/c1ccc(Cl)cc1Cl | 1.8%
O=C(CCNS(=O)(=O)c1ccccc1[N+](=O)[O-])N(Cc1ccccc1)Cc1ccccc1 | 11.7%
O=C(Oc1ccc([N+](=O)[O-])c(Cl)c1)c1c(F)cccc1F | -8.9%
Cc1ccc(C(=O)NC2C(=O)N3C2SC(C)(C)C3C(=O)O)o1 (centres undefined) | 11.6%
O=[N+]([O-])c1ccccc1C=NN1CCN(c2ccc(Cl)cc2)CC1 | -2.6%
COC(=O)c1c(C)oc2ccc(OC(C)C(=O)O)cc12 (centres undefined) | 10.3%
CC1CCN(C(=O)COc2ccc(-c3ccccc3)cc2)CC1 | 11.9%
Cc1oc(/N=C/c2cccc3ccccc23)c(C#N)c1C | 12.4%
Cc1ccc(-c2nc3ccccc3o2)cc1NC(=O)c1ccccc1Br | 18.1%
NNC(=O)COc1ccc2c(c1Br)CCCC2 | -25.1%
O=[N+]([O-])c1cccc(CNC2CCCC2)c1 | 12.4%
Cc1cccc(N2C(=O)CC(Sc3ncn[nH]3)C2=O)c1 (centres undefined) | 8.5%
c1ccc(Nc2ncnc3sc4c(c23)CCC4)cc1 | -9.5%
COc1c([N+](=O)[O-])c(=O)oc2ccccc12 | 16.9%
Cc1ccc(CNC(=O)c2ccc(N(C)S(=O)(=O)c3ccccc3)cc2)cc1 | -6.2%
COCCNC(=O)CN(c1ccc(C)cc1)S(=O)(=O)c1ccc(SC)cc1 | 26.9%
O=C1NC(=O)N(c2ccc3c(c2)OCO3)C(=O)/C1=C/c1ccc(I)o1 | 17.5%
CC(C)c1ccc(NC(=O)CN(CCc2ccccc2)S(=O)(=O)c2ccccc2)cc1 | -7%
CCC1CCCCN1S(=O)(=O)c1ccc(Cl)c([N+](=O)[O-])c1 (centres undefined) | 12.2%

SMILES | displacement
COc1ccccc1NC(=O)c1ccc(Oc2ccc(C(=O)Nc3ccccc3OC)cc2)cc1 | -1.8%
CC(C)Oc1ccc(NC(=O)CSc2nc3ccccc3s2)cc1 | 11.8%
O=C1c2ccccc2C(=O)N1CCCc1nc2ccccc2c(=O)n1CCCn1ccnc1 | -5.9%
O=C(CNC(=O)c1cccc(Cl)c1)N/N=C/C=C/c1ccccc1 | 2.3%
O=C(O)COc1ccc(NC(=O)c2ccco2)cc1 | 15.4%
COc1ccccc1C/C(N)=N/OC(=O)c1cccc(I)c1 | 9.7%
CCOc1cc(C(=O)Nc2c(C)cc(C)cc2C)cc(OCC)c1OCC | -3.1%
C/C(CC(C)(C)Nc1ccccc1)=N\O | -2.4%
COc1cccc(C(=O)Nc2ccc3oc(-c4ccc(F)cc4Cl)nc3c2)c1 | 17.1%
COc1ccc(Cl)cc1-c1n[nH]c(=S)o1 | 5.6%
CCOc1ccc(S(=O)(=O)N(CC(=O)Nc2cccnc2)c2ccc(C)cc2)cc1 | -6.4%
CCOC(=O)C(Cc1cccc([N+](=O)[O-])c1)SC#N (centres undefined) | 11.2%
O=C1C=C/C(=N\S(=O)(=O)c2ccc(Cl)c([N+](=O)[O-])c2)c2ccccc21 | 24.8%
CCOC(=O)C1=CN(c2ccc(C)cc2)C=C(C(=O)OCC)C1c1ccccc1OC | 5.4%
CCc1ccccc1NC(=O)CN(c1ccc(C)cc1)S(C)(=O)=O | 9.9%
O=C(COc1ccccc1[N+](=O)[O-])Nc1ccc2oc(-c3ccccc3F)nc2c1 | 2.9%
COc1ccc(C2=C/C(=C\c3ccc(OC)c([N+](=O)[O-])c3)C(=O)O2)cc1 | 2.7%
O=[N+]([O-])c1ccc(NCCCNS(=O)(=O)c2ccc(Cl)cc2)c(Cl)c1 | -1.4%
CCc1ccc(N2CC(C(=O)NCc3ccccc3OC)CC2=O)cc1 (centres undefined) | -0.3%
COc1ccc(/C=C/C(=O)c2cccc(Br)c2)c(OC)c1 | -9.7%
CCOc1ccc(N2C(=O)CC(Sc3nc4ccc(OCC)cc4s3)C2=O)cc1 (centres undefined) | 8.8%
CCC(C)N1C(=O)C(=O)N(C2CCCCC2)C1=O (centres undefined) | 14.9%
CC(=O)Nc1ccc(-c2nc(-c3ccc4c(c3)C(=O)c3cc([N+](=O)[O-])ccc3-4)c(-c3ccccc3)[nH]2)cc1 | 7.1%
